We go through 55 molecules from PMC4336329 (PLoS ONE, 2015).

About 2,200 (0.71%) of roughly 310,000 compounds showed an effect of 50% or more. Effects have a minus sign here. The list shows a part of the results.

For this assay, the target named is human ether-à-go-go-related gene (hERG) potassium channel (human, UniProt Q12809). The assay can be described thus: primary screen, population patch clamp on CHO cells stably expressing hERG.
human ether-à-go-go-related gene (hERG) potassium channel, sequence (Q12809 whole entry, looked up): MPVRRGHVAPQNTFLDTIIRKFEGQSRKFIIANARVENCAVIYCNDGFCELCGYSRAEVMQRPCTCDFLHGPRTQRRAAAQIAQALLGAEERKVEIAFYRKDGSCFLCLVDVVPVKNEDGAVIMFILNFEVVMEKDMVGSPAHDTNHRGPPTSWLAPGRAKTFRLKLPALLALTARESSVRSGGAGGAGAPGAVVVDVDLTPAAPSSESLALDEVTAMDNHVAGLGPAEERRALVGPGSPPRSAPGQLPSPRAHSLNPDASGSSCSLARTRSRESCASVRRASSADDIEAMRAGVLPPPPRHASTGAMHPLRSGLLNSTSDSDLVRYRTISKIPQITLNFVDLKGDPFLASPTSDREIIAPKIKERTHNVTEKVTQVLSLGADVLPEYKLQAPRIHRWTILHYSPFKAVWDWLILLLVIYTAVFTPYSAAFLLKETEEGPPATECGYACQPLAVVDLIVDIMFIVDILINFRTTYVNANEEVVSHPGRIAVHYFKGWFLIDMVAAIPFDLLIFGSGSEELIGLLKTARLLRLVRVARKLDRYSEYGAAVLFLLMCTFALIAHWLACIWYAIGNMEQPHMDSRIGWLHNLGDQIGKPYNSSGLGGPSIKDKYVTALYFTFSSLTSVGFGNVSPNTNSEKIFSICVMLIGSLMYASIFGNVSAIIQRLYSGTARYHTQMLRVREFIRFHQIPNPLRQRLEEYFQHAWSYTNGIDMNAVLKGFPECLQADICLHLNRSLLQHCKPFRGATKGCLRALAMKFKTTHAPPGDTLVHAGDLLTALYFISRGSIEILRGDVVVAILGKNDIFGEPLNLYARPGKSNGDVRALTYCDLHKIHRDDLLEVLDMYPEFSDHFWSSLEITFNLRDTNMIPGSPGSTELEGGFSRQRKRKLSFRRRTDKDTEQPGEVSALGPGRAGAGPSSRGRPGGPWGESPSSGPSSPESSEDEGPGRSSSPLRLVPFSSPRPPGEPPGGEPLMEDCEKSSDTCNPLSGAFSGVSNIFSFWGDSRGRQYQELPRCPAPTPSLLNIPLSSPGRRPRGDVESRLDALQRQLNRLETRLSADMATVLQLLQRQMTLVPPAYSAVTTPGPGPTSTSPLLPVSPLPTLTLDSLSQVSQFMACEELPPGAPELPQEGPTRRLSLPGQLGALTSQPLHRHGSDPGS
Turning to `CCn1c(SCC(=O)N2CCCC2)nc2c(c1=O)SC(C)C2` (stereo not shown), the “hERG current change (%, negative = inhibition) at 1uM” value was 14.5%. To `COc1cc(/C=C2\SC(=Nc3ccc(N4CCOCC4)cc3)N(C)C2=O)ccc1OC(C)C(=O)O` (stereo not shown) belongs 9.3%; to `Cc1onc(-c2ccccc2Cl)c1C(=O)NCc1nc(-c2ccc(C(F)(F)F)cc2)no1`, 20.8%; to `CCOC(=O)C(NCCc1ccccc1)(NC(C)=O)C(F)(F)F` (stereo not shown), 7.74%. To `CS(=O)(=O)N1CCc2cc(-c3csc(NC(=O)Cc4ccccc4)n3)ccc21` belongs 3.59%; to `Cc1onc(-c2c(F)cccc2Cl)c1-c1nnc(-c2ccc(C(F)(F)F)cc2)o1`, 2.21%.

On to `O=C(CN(CCc1ccccc1)C(=O)CNS(=O)(=O)c1ccc(F)cc1)NCC1CCCO1` (stereo not shown), for which the “hERG current change (%, negative = inhibition) at 1uM” value was found to be 8.08%.

As to `CC1(C)COC(c2cccc(C3=NC(C)(C)CO3)n2)=N1`, the “hERG current change (%, negative = inhibition) at 1uM” value amounted to 13.1%.

`Cc1ccc(C)c(SCC(=O)NNC(=O)c2ccccc2)c1`: the “hERG current change (%, negative = inhibition) at 1uM” value turned out to be 9.22%. As to `COc1ccccc1C1CCN(Cc2cccc(C(=O)N3CCC(O)CC3)c2)CC1`, the “hERG current change (%, negative = inhibition) at 1uM” value was 16.4%. To `O=C(CSc1nnc(-c2ccccn2)n1Cc1ccco1)Nc1ccc2c(c1)OCO2` belongs 1.69%; to `CCC(C)c1ccc(OCc2ccc(C(=O)O)o2)cc1` (stereo not shown), 18.2%; to `CC(C(=O)c1ccc(-c2ccccc2)cc1)[n+]1cccc(C(N)=O)c1.[Br-]` (stereo not shown), 15.5%. Under `CCOc1ccccc1NC(=O)c1cc(C(=O)c2cc(OC)ccc2O)coc1=N` stands 8.22%; under `CC(/C=N/N1CCN(Cc2ccccc2)CC1)=C\c1ccccc1`, 19.4%; under `CCN(CC)C(=O)C1CCCc2c1[nH]c1ccc(Cl)cc21` (stereo not shown), 7.07%. To `CN(C)c1nc(N)nc(Nc2ccccc2C#N)n1` belongs 11.6%. On to `Cc1cc(C(C)(C)C)oc1C(=O)N(CC(=O)NC1CCCC1)Cc1ccc(F)cc1`, for which the “hERG current change (%, negative = inhibition) at 1uM” value came out at 10.6%. For `CCN1CCN(c2ncnc3c2c(-c2ccccc2)cn3-c2ccc(F)cc2)CC1`, the “hERG current change (%, negative = inhibition) at 1uM” value is recorded as -44%.

`Cc1ccc2sc(NNC(=O)C3COc4ccccc4O3)nc2c1C` (stereo not shown): the “hERG current change (%, negative = inhibition) at 1uM” value stood at 9.9%. Take `Cc1nnc2sc(SCC(=O)N3CCC(C)CC3)nn2c1=O`: the “hERG current change (%, negative = inhibition) at 1uM” value is given as -1.71%. With `COc1cc2c(cc1OC)-c1cc(Nc3ccccc3C)nc(=O)n1CC2`, the “hERG current change (%, negative = inhibition) at 1uM” value is 17.5%. Under `COc1ccc(N2CCN(Cc3nc4ccccc4n3C)CC2)cc1` stands 1.75%; under `COc1ccc(S(=O)(=O)NCCSCc2ccco2)cc1Cl`, 9.28%; under `CCCCn1c(N)c(N(CCOC)C(=O)CSc2n[nH]c(-c3ccc(OC)cc3)n2)c(=O)[nH]c1=O`, 8.98%. To `CCN(C(=O)COC(=O)c1c(NC(C)=O)sc(C)c1C)C1CCS(=O)(=O)C1` (stereo not shown) belongs 2.35%; to `Cc1cccc(C)c1N=Cc1c(O)n(-c2nccs2)c(=O)c2ccccc12`, 7.89%; to `CCOc1cc(N2CCOCC2)c(OCC)cc1NC(=O)C(NC(=O)c1ccco1)C(C)C` (stereo not shown), 6.38%. Under `CCN1C(=O)C(CC(=O)NC)N(NC(=O)c2ccccc2)C1=S` (stereo not shown) stands -5.12%; under `COc1ccc(C(Nc2ccc(S(=O)(=O)NCC3CCCO3)cc2)C(=O)NC(C)(C)C)cc1OC` (stereo not shown), 12.2%; under `O=C(COc1ccc(-c2nnc(N3CCCCC3)c3ccccc23)cc1)N1CCCCC1`, 1.74%. For `CC1(C(=O)OCC(=O)NC(=O)NCc2ccccc2)CC1(Cl)Cl` (stereo not shown), the “hERG current change (%, negative = inhibition) at 1uM” value came out at 9.76%.

`CCOC(=O)C1(Cc2ccccc2C(F)(F)F)CCN(C2CCCC2)CC1`: the “hERG current change (%, negative = inhibition) at 1uM” value was -6.3%. `Nc1nc(SCC(=O)NCc2ccccc2Cl)[nH]c(=O)c1NC(=O)c1ccccc1F`: the “hERG current change (%, negative = inhibition) at 1uM” value worked out at 8.82%. Under `Cn1c(=O)n(C)c2cc(NC(=O)CSc3nnc(-c4ccccc4O)n3-c3ccccc3)ccc21` stands 6.95%; under `O=C1c2ccccc2CN1CCNC(=S)NC1CCCCC1`, 11.9%. To `O=C(CN(CCc1ccccc1)Cc1ccccc1)Oc1ccccc1P(=O)(O)O` belongs 3.81%. To `Cc1c(NC(=O)CCCCCN2C(=O)C3C4C=CC(C4)C3C2=O)c(=O)n(-c2ccccc2)n1C` (stereo not shown) belongs 9.79%; to `CCOC(=O)C1CCN(c2ncnc3c2oc2ccc(Cl)cc23)CC1`, 0.808%. As to `CCCOc1ccc(CSC(=N)N)cc1C(=O)OC.Cl`, the “hERG current change (%, negative = inhibition) at 1uM” value amounted to 14%.

With `COc1ccccc1C(=O)COC(=O)Cn1[nH]c(=O)c2ccccc2c1=O`, the “hERG current change (%, negative = inhibition) at 1uM” value was 10.2%. Under `CCOC(=O)Cn1cnc2c(cnn2-c2ccc(Cl)cc2)c1=O` stands 11.6%. Under `O=C(NC1CCCCC1)c1n[nH]c2c1CC(c1ccccc1)CC2` (stereo not shown) stands 14.7%; under `CC1CN(C(=O)CCC(=O)NCCCN2CCC(Cc3ccccc3)CC2)c2cc(Cl)ccc2O1` (stereo not shown), -62.2%. On to `Cn1c(=O)c2c(nc3n2CC(O)CN3c2ccccc2)n(C)c1=O` (stereo not shown), for which the “hERG current change (%, negative = inhibition) at 1uM” value was 15.8%. To `CCOc1cc2[nH]c(=S)n(Cc3ccc(C(=O)O)cc3)c(=O)c2cc1OCC` belongs 13.7%; to `CCOC(=O)c1[nH]c2ccccc2c1N=CN(CC)CC`, -33.1%; to `CCNc1nc(NCC)n2c(SCC(=O)c3ccccc3F)nnc2n1`, 12.5%.

Consider `Cc1ccc2c(c1)C1CN(C)CCC1N2Sc1ccccc1[N+](=O)[O-]` (stereo not shown), for which the “hERG current change (%, negative = inhibition) at 1uM” value is listed as -4.1%. On to `COc1cccc(CNC(=O)CN(C)S(=O)(=O)c2ccc3c(c2)c(=O)n(C)c(=O)n3C)c1`, for which the “hERG current change (%, negative = inhibition) at 1uM” value stood at 17.3%. Consider `CCOc1ccc(OCCOCCOc2ccccc2Cl)cc1`, for which the “hERG current change (%, negative = inhibition) at 1uM” value is 8.45%. For `OCC[C@@H]1C[C@@H](O)[C@H](O)[C@@]2(OCc3ccccc32)O1`, the “hERG current change (%, negative = inhibition) at 1uM” value is given as 16%.

On to `O=C(Cc1cccc2ccccc12)NNC(=O)c1ccc(Br)o1`, for which the “hERG current change (%, negative = inhibition) at 1uM” value is 8.02%.

Turning to `CCOC(=O)c1c(-c2ccccc2)csc1/N=C/C1C(=O)CCCC1=O`, the “hERG current change (%, negative = inhibition) at 1uM” value is 1.64%.

For `CCOC(=O)C1CCN(Cc2nnc(-c3ccccc3C)o2)CC1.Cl`, the “hERG current change (%, negative = inhibition) at 1uM” value was found to be 13.8%.
